Results taken from PMC4336329 (PLoS ONE, 2015).
Among all 310,000 compounds or so, about 14,000 (4.5%) showed an effect of 50% or more. Effects have a minus sign here. The list shows a part of the results.

Target: human ether-à-go-go-related gene (hERG) potassium channel (human, UniProt Q12809)
Assay: primary screen, population patch clamp on CHO cells stably expressing hERG
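Note: peak tail current of the secondary pulse compared with the same well before compound.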

Chain of human ether-à-go-go-related gene (hERG) potassium channel (Q12809 whole entry, looked up): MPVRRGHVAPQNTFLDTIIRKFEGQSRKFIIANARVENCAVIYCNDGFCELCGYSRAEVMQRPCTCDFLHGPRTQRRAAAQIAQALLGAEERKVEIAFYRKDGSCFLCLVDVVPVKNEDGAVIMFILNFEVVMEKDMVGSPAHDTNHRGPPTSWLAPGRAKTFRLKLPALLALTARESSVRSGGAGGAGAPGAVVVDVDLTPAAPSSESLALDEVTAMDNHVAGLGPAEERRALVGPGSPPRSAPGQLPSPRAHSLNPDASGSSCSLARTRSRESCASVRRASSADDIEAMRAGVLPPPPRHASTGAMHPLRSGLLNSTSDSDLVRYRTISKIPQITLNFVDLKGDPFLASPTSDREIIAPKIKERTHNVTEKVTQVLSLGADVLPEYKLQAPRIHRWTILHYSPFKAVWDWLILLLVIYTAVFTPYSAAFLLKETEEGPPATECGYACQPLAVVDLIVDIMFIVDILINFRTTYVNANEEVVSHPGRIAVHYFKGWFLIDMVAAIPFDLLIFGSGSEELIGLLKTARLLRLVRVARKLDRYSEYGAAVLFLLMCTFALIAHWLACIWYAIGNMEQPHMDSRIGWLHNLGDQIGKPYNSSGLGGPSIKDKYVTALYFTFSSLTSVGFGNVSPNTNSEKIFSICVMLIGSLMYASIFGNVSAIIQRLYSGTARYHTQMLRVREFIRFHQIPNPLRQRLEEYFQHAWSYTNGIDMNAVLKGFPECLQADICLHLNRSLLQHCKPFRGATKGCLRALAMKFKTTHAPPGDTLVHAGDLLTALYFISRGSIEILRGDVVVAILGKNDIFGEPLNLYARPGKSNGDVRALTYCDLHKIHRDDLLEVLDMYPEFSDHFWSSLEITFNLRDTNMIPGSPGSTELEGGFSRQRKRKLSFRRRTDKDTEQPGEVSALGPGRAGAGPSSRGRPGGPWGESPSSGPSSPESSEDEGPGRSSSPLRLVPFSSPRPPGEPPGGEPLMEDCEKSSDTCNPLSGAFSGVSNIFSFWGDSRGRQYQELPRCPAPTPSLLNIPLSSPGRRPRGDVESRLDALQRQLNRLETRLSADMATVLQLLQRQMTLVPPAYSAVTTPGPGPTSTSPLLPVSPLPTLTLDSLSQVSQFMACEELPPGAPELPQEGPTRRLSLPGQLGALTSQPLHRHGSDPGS

SMILES	hERG current change (%, negative = inhibition) at 10uM [%]
Cn1c(SCC(=O)NC2(C#N)CCCCC2)nnc1-c1cccnc1	8.7
Cc1ccc(NC(=O)CN(C)C(=O)COc2cccc3cccnc23)cc1	-12.4
COc1ccc(C(=O)NC(=S)N2CCCCC2c2cccnc2)cc1OC (stereo not drawn)	-16.7
O=C(CN1C(=O)c2cccc3cccc(c23)C1=O)N1CCOCC1	3.27
CN(C)CCCN(C(=O)CCc1ccccc1)c1nc2ccc(Br)cc2s1.Cl	-3.24
COc1ccc(NC(=O)c2cc3n(n2)C(C(F)(F)F)CC(c2ccc(OC)cc2)N3)cc1 (stereo not drawn)	12.4
CC[C@@]1(c2ccccc2C)C(=O)N(C(=O)OC)N1C(=O)OC	20.3
O=[N+]([O-])c1nn(-c2ccc3c(c2)OCCO3)n(O)c1=Nc1ccc(Cl)cc1	5.22
O=C1CSC(=O)N1CC(O)COc1ccc(Cl)cc1 (stereo not drawn)	-6.72
Cc1cccc(NC(=O)C2CC(=O)N/C(=N/N=C/c3ccco3)S2)c1 (stereo not drawn)	1.47
O=C(Nc1ccc(F)c(F)c1)c1ccc(F)c(S(=O)(=O)N2CCC3(CC2)OCCO3)c1	-1.01
COc1ccc(NC(C)=O)cc1S(=O)(=O)N1CCc2ccccc21	-45.2
Cc1ccc(C)c2[nH]c(=O)c(CCNC(=O)Cc3cccs3)cc12	-0.656
Cc1ccc(S(=O)(=O)N(C)c2ccc(OC(=O)CN3C(=O)NC4(CCCC4)C3=O)cc2)cc1C	9.26
O=C1C(=O)N(Cc2ccco2)C(c2cccc(Cl)c2)/C1=C(\O)c1ccc2c(c1)OCCO2 (stereo not drawn)	15.8
Cc1c(N=Cc2ccncc2)c(=O)n(-c2ccccc2)n1C	-9.42
CCN(Cc1nc(-c2ccccc2)no1)C(=O)c1ccc2c(c1)OCO2	-4.48
O=C(COC(=O)c1cc(NS(=O)(=O)c2cccs2)ccc1O)Nc1ccccc1	12.1
CCCCN(C)C(=O)c1oc2ccc(S(=O)(=O)N3CCCCCC3)cc2c1C	-15.9
C=CCn1c(SCC(=O)NC(=O)NCc2ccco2)nc2sc(C)c(C)c2c1=O	6.5
Cc1cc(=O)n2[nH]c(NCc3ccccc3F)nc2n1	15.2
COc1ccc(N2CC(O)=C(c3nc(-c4ccccc4)cs3)C2=N)cc1	12.3
CC(C)(C)c1ccccc1OCC(=O)Nc1ncn[nH]1	21.5
Cc1onc(-c2c(Cl)cccc2Cl)c1C(=O)NC1C(=O)N2C1SC(C)(C)C2C(=O)[O-].[Na+] (stereo not drawn)	5.57
COc1ccc(CN(CCC(c2ccccc2)C2CCOC(C)(C)C2)C(C)=O)cc1 (stereo not drawn)	-11.6
O=C(COc1ncnc2sccc12)Nc1ccc2c(c1)OCCO2	-1.64
O=C(O)CCc1ccc(-c2ccc(Cl)cc2)n1CCC(=O)O	5.2

SMILES	hERG current change (%, negative = inhibition) at 10uM [%]
CC1CCCC(NC(=O)CCNC(=O)c2ccc(Cl)cc2)C1C (stereo not drawn)	-10.3
CCOCCCN(C)C1CCN(C(=O)c2oc3ccccc3c2NC(=O)c2cccc([N+](=O)[O-])c2)CC1	-79.7
CCCCn1c(N)c(N(CCOC)C(=O)COc2c(C)cccc2C)c(=O)[nH]c1=O	-0.678
Cn1c(COc2ccc3ccccc3c2)nnc1SCC(=O)OC1CCCCC1	-2.58
CN(C)c1ccc(NC(=O)Cn2c(=O)n(Cc3ccccc3)c(=O)c3ccccc32)cc1	5.49
O=C(c1ccco1)N1CCN(C(=O)c2cc3sccc3n2Cc2ccccc2)CC1	-55.6
C=C(C)COc1ccc(-c2nc(N)nc(C)c2Oc2ccccc2OC)c(O)c1	17.4
Cc1ccc(N(C)S(=O)(=O)c2csc(C(N)=O)c2)cc1C	-14.8
O=[N+]([O-])c1ccc(N2CCN(c3ccccc3F)CC2)nc1	13.4
CCC1C(C#N)=C(N)OC2=C1C(=O)CC(C)(C)C2 (stereo not drawn)	14.2
COc1ccc(NC(=O)CCC(=O)Nc2nnc(C3CCCCC3)s2)c(OC)c1	23.2
COc1ccccc1N1CCN(S(=O)(=O)c2ccc3c(c2)NC(=O)C(C)C(=O)N3)CC1 (stereo not drawn)	-7.18
CCOC(=O)Cc1cc(=O)[nH]c(/N=C(/NC(=O)c2ccccc2)Nc2ccccc2C(F)(F)F)n1	4.39
COCCCNC(=O)c1oc2ccc(S(=O)(=O)N3CCOCC3)cc2c1C	-3.32
Cc1ccc(C(=O)NCC(=O)N2CCN(c3ccccc3)CC2)cc1	-6.26
Cc1c([N+](=O)[O-])cc(S(=O)(=O)Nc2ccncc2)cc1[N+](=O)[O-]	34.3
Fc1ccc(Cn2nnnc2CN2CCN(C3CCCCC3)CC2)cc1	-45.4
CC(Oc1ccccc1F)C(=O)NNC(=O)CCNC(=O)c1ccco1 (stereo not drawn)	-0.266
CCc1nc(C)cn1S(=O)(=O)c1cc(OC)c(C)cc1C	2.46
CN(C(=O)c1cc2ccccc2cc1O)C1CCCCC1	0.457
COc1ccc(C(=O)Nc2cccc(S(=O)(=O)NC3=NCCCCC3)c2)cc1	-10.9
O=C(COC(=O)C1CCN(c2ccc(C(F)(F)F)cn2)CC1)NCCc1ccccc1	-12.8
COCCNC(=O)C1CC(=O)N(c2ccc(OC)cc2)C1c1ccc(OC)cc1 (stereo not drawn)	9.03
FC(F)C(F)(F)C1=CC(c2cccs2)=NCCN1	-25.5
NC(=O)c1ccsc1NC(=O)COC(=O)c1nc(Cl)ccc1Cl	-0.505
Cc1cc(Oc2ccc([N+](=O)[O-])cc2)nc(N2CCOCC2)n1	13.5
CCOC(=O)C1CCN(Cc2ccc(O)c3ncccc23)CC1	3.26
